PubChem BioAssay AID2147 (National Center for Advancing Translational Sciences (NCATS), 2009)
In all, about 230,000 compounds went through this assay and about 3,600 (1.6%) were called active. Inconclusive means that the source gave no clear call. Such entries were picked first, then a sample of the others. Calls come from the whole dose curve; as a rule, active = well fitted inhibition curve with a large enough effect (not every such curve was filed as active); inconclusive = small, poorly fitted or top-dose-only effect, or another doubt; inactive = no such curve, though single readings can be large or run the other way. Where the call is inconclusive, the potency comes from a doubtful curve fit.

target: Lysine-specific demethylase 4E (Homo sapiens) (UniProt B2RXH2); test: qHTS Assay for Inhibitors of Human Jumonji Domain Containing 2E (JMJD2E); conditions: JMJD2E catalytic domain, FDH-coupled NADH fluorescence (FDH is formaldehyde dehydrogenase); series mostly up to 57.1 µM; activity change, negative = inhibition: at the top concentration
Note: nearly all actives have a fitted effect of over 50% in size.
Potency is the fitted concentration of half-maximal effect; tags give direction and shape of the fitted curve.
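Throughout, for activity change, negative = inhibition: 0% = wells with enzyme and -100% = buffer wells without enzyme.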

Chain of UniProt B2RXH2 (B2RXH2 whole entry, looked up, the tested form may be a part): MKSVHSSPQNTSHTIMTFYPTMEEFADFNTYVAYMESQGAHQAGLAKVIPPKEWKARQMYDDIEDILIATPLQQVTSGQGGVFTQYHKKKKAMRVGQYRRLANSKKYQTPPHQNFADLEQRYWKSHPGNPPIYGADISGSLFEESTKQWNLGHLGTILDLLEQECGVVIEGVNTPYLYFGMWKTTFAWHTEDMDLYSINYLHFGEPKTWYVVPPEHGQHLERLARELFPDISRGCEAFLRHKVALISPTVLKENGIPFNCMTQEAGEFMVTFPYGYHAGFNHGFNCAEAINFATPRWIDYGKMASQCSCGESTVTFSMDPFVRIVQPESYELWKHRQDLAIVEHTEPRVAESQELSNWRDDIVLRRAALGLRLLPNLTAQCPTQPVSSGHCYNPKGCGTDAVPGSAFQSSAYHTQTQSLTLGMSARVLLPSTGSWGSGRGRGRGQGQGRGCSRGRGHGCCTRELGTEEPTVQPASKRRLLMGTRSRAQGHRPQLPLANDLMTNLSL

For `Clc1ccc(/C=C/c2nc3ccccc3[nH]2)c(Cl)c1`, which Potency is on record?
Its Potency is inconclusive: 35.5 µM [inhibitor, partial curve].

For `O=C(O)CC(NC(=O)C1c2ccccc2Oc2ccccc21)c1ccc(Cl)cc1` (stereo not drawn), which “activity change, negative = inhibition” value is on record?
The value was inactive: -6.61%.

With `COC(=O)c1ccccc1S(=O)(=O)N(Cc1cc2cc3c(cc2[nH]c1=O)OCO3)C1CCCCC1` as the compound, how does the Potency read?
Its Potency is inconclusive: 17.8 µM [inhibitor, partial curve].

With `C[C@H]1CC[C@H]2C(=O)N3[C@H](c4cccc(N5CCCC5=O)c4)[C@@H](C)CC[C@H]3C(=O)N2[C@@H]1c1cccc(N2CCCC2=O)c1` as the compound, how does the “activity change, negative = inhibition” value read?
The value was inactive: -2.07%.

With `O=C(CCCN1C(=O)c2cccc3cccc(c23)C1=O)NCc1cccs1` as the compound, how does the Potency read?
Its Potency is inconclusive: 31.6 µM [inhibitor, partial curve].

With `Cc1ccc2nc(-c3ccncc3)cc(C(=O)NCCc3ccc(F)cc3)c2c1` as the compound, how does the Potency read?
Its Potency is inconclusive: 25.1 µM [inhibitor, partial curve].

For `CCOC(=O)C1CCCN(CCC(C)c2ccccc2)C1` (stereo not drawn), which Potency is on record?
Its Potency is inconclusive: 31.6 µM [inhibitor, single point].

For `CN1CCN(C(=S)Nc2ccc(S(N)(=O)=O)cc2)CC1`, which “activity change, negative = inhibition” value is on record?
The value was inactive: 15.8%.

How did the Potency turn out when `CCCCOc1cccc(-c2cc(C(=O)NNC(=S)NCC)c3ccccc3n2)c1` was run?
The Potency was inconclusive: 39.8 µM [inhibitor, single point].

With `CC(=O)C(Sc1ccc2nnc(-c3ccncc3)n2n1)C(C)=O` as the compound, how does the Potency read?
The Potency was inconclusive: 25.1 µM [inhibitor, single point].

With `O=C(CSc1n[nH]c(=O)n1-c1cccnc1)N1CCOCC1` as the compound, how does the “activity change, negative = inhibition” value read?
Its value is inactive: -0.29%.

Which “activity change, negative = inhibition” value does the source give for `CCC(C)NC(=O)Nc1ccc(Br)cc1` (stereo not drawn) here?
Its value is inactive: 1.1%.

Which Potency does the source give for `O=C(Nc1ccc(Br)cn1)c1cccc(-c2cc3ccccc3oc2=O)c1` here?
Its Potency is inconclusive: 31.6 µM [inhibitor, partial curve].

Which “activity change, negative = inhibition” value does the source give for `Cc1cc(C)n(-c2ccc(C(F)(F)F)cc2[N+](=O)[O-])n1` here?
The value was inactive: 4.17%.

With `COc1ccccc1Oc1c(C)oc2c(CN3CCN(C)CC3)c(O)ccc2c1=O` as the compound, how does the Potency read?
Its Potency is inconclusive: 28.2 µM [inhibitor, partial curve].

Which Potency does the source give for `O=C(Cn1c(-c2cscn2)nc2ccccc21)Nc1ccc(Cl)cc1` here?
Its Potency is inconclusive: 25.1 µM [inhibitor, single point].

For `Cc1ccc(S(=O)(=O)/N=C(\CCl)N2CCOCC2)cc1`, which “activity change, negative = inhibition” value is on record?
The value was inactive: 10.4%.

`CC(C)=CC1C=C(C)C(C)C2C(=O)NNC(=O)C12` (stereo not drawn) was tested. Which “activity change, negative = inhibition” value did it give?
The value was inactive: -1.56%.

`CN/N=C(\Cc1nc2ccccc2[nH]1)c1ccc([N+](=O)[O-])cc1` was tested. Which Potency did it give?
The Potency was inconclusive: 39.8 µM [inhibitor, single point].

With `CSC1=N/C(=C\c2ccc(F)cc2)C(=O)S1` as the compound, how does the “activity change, negative = inhibition” value read?
The value was inactive: -4.09%.

`CC[n+]1ccccc1/C=C/Nc1ccccc1` was tested. Which Potency did it give?
Its Potency is active: 17.8 µM.

Which Potency does the source give for `O=C(NCc1ccccc1)C1=C[C@H](c2csc3ccccc23)C[C@H](OCCCCO)O1` here?
The Potency was inconclusive: 22.4 µM [inhibitor, single point].

`O=c1c2cc(N3CCOCC3)ccc2[nH]c(=S)n1CC1CCCO1` (stereo not drawn) was tested. Which Potency did it give?
Its Potency is inconclusive: 28.2 µM [inhibitor, partial curve].

With `CC(C)NC(=O)NC1C2CC3CC(C2)CC1C3` (stereo not drawn) as the compound, how does the “activity change, negative = inhibition” value read?
The value was inactive: -2.24%.

`CCOC(=O)CSC1=C(C#N)C(c2ccccc2C)C2=C(CCCC2=O)N1` (stereo not drawn) was tested. Which Potency did it give?
The Potency was inconclusive: 39.8 µM [inhibitor, single point].

Which Potency does the source give for `O=C(CSc1ccc(-c2nc3ccccc3[nH]2)cn1)N1CCN(C(=O)c2ccco2)CC1` here?
The Potency was inconclusive: 20 µM [inhibitor, partial curve].

Which Potency does the source give for `Cc1cc(OCCN2CCOCC2)ccc1[N+](=O)[O-]` here?
Its Potency is inconclusive: 25.1 µM [inhibitor, single point].

With `Cc1ccc(S(=O)(=O)N(C)CC(=O)N2CCN(c3ccccn3)CC2)cc1` as the compound, how does the Potency read?
Its Potency is inconclusive: 28.2 µM [inhibitor, partial curve].

`COC(=O)N/N=C/c1cn(Cc2ccccc2Cl)c2ccccc12` was tested. Which “activity change, negative = inhibition” value did it give?
Its value is inactive: -3.29%.

Which “activity change, negative = inhibition” value does the source give for `Cc1nc(Nc2ccccc2)sc1-c1ccccc1` here?
The value was inactive: 2.84%.

With `Cn1c(-c2ccc3c(c2)OCO3)cnc1NC(=O)CCC(=O)NCCc1ccccc1` as the compound, how does the Potency read?
Its Potency is inconclusive: 39.8 µM [inhibitor, single point].

With `COc1cc(/C=C2\SC(=O)N(c3cccc(Cl)c3)C2=O)cc([N+](=O)[O-])c1O` as the compound, how does the “activity change, negative = inhibition” value read?
Its value is inactive: -9.7%.

For `COc1ccc(C2CC(=O)N3CN(Cc4ccco4)CSC3=C2C#N)cc1` (stereo not drawn), which “activity change, negative = inhibition” value is on record?
Its value is inactive: -28.2%.

With `CN(/N=C/c1ccc(Br)o1)C1=NS(=O)(=O)c2ccccc21` as the compound, how does the Potency read?
The Potency was inconclusive: 28.2 µM [inhibitor, partial curve].

`CCN(CC)CCNC(=O)c1ccc(-n2c(C)cc3c2CCCC3=O)cc1` was tested. Which “activity change, negative = inhibition” value did it give?
The value was inactive: 5.91%.

With `Cc1cc(C)nc(S/C=C/C(=O)c2ccccc2)n1` as the compound, how does the “activity change, negative = inhibition” value read?
The value was inactive: 10%.

With `CCOC(=O)c1c(/N=C/c2ccc(OC)cc2O)sc2c1CCN(C)C2` as the compound, how does the Potency read?
Its Potency is inconclusive: 28.2 µM [inhibitor, partial curve].

How did the Potency turn out when `O=C(Nc1ccc2ccccc2c1)/C(=C\c1ccc2c(c1)OCO2)NC(=O)c1ccco1` was run?
The Potency was inconclusive: 35.5 µM [inhibitor, single point].

How did the “activity change, negative = inhibition” value turn out when `Cc1ccccc1C(=O)N1CCN(c2ccc([N+](=O)[O-])c(NCc3cccnc3)c2)CC1` was run?
Its value is inactive: -7.08%.

For `Nc1ccc(Nc2ccccc2)c(S(=O)(=O)O)c1`, which Potency is on record?
Its Potency is inconclusive: 28.2 µM [inhibitor, partial curve].

How did the “activity change, negative = inhibition” value turn out when `CCc1c(C#N)c(N)nc(SCC(=O)OCc2ccccc2)c1C#N` was run?
The value was inactive: -8.56%.

How did the Potency turn out when `Cc1ccc(C2=NN(C)c3nc4ccccc4n3C2)cc1` was run?
The Potency was inconclusive: 28.2 µM [inhibitor, partial curve].

`Cc1ccc2c(N)c(C#N)sc2n1` was tested. Which Potency did it give?
The Potency was inconclusive: 35.5 µM [inhibitor, single point].

With `COc1ccc(C(OC(=O)c2ccco2)C(=O)NC(C)(C)C)cc1` (stereo not drawn) as the compound, how does the “activity change, negative = inhibition” value read?
The value was inactive: 14.2%.

Which “activity change, negative = inhibition” value does the source give for `COc1cc(NC(=O)CCNS(=O)(=O)c2ccc3c(c2)CCC(=O)N3)cc(OC)c1` here?
The value was inactive: -2.33%.

For `CC(C)NC(=O)c1onc(CSc2ccc(F)c(F)c2)c1C(=O)O`, which Potency is on record?
The Potency was inconclusive: 39.8 µM [inhibitor, single point].

How did the Potency turn out when `COc1ccc(OC)c(CCNC(=O)Cn2sc3nc(C)cc(C)c3c2=O)c1` was run?
Its Potency is active: 28.2 µM.

Which Potency does the source give for `O=[N+]([O-])c1ccc(O)c2ncccc12` here?
The Potency was inconclusive: 2.82 µM [inhibitor, full curve, poor fit].

Which “activity change, negative = inhibition” value does the source give for `CCCc1[nH]nc2c1C(c1cc(OC)cc(OC)c1)C(C#N)=C(N)O2` (stereo not drawn) here?
Its value is inactive: -15.2%.

How did the Potency turn out when `CCc1ccc(OCC(=O)NCCOc2ccccc2)cc1` was run?
The Potency was inconclusive: 39.8 µM [inhibitor, single point].

How did the “activity change, negative = inhibition” value turn out when `Cc1cccc(-n2c(O)c(C=Nc3cccc(O)c3)c3ccccc3c2=O)n1` was run?
The value was inactive: -6.07%.

With `CCN(Cc1ccccc1)C(=O)C1CCN(CC2CC=CCC2)CC1` (stereo not drawn) as the compound, how does the Potency read?
The Potency was inconclusive: 22.4 µM [inhibitor, single point].

Which Potency does the source give for `Cc1cccc(NC(=S)Nc2ccc3cn[nH]c3c2)c1` here?
Its Potency is inconclusive: 12.6 µM [inhibitor, partial curve].

With `O=C(C1CCN(CC2CC=CCC2)CC1)N(CCc1ccccc1)Cc1ccccc1` (stereo not drawn) as the compound, how does the “activity change, negative = inhibition” value read?
The value was inactive: -1.41%.

How did the Potency turn out when `COc1ccc(C)cc1NCc1cc(=O)oc2cc(-c3ccccc3)c(O)cc12` was run?
Its Potency is inconclusive: 39.8 µM [inhibitor, single point].

For `CN(Cc1ccccc1)S(=O)(=O)c1ccc(N2CCOCC2)nc1`, which Potency is on record?
Its Potency is inconclusive: 39.8 µM [inhibitor, single point].

Which Potency does the source give for `c1ccc(-c2csc3ncnc(-n4cnc5ccccc54)c23)cc1` here?
Its Potency is inconclusive: 39.8 µM [inhibitor, single point].

With `Cc1cc(-c2nn(-c3ccccc3F)cc2CN2CCN(c3ccccn3)CC2)c(C)s1` as the compound, how does the Potency read?
The Potency was inconclusive: 39.8 µM [inhibitor, single point].

`CCS(=O)(=O)c1ccc(-c2csc(-c3ccccc3)n2)c(Cl)c1Cl` was tested. Which Potency did it give?
The Potency was inconclusive: 28.2 µM [inhibitor, single point].

With `CCn1cnc2c1c(=O)n(Cc1csc(-c3ccccc3)n1)c(=O)n2Cc1ccccc1` as the compound, how does the Potency read?
The Potency was inconclusive: 39.8 µM [inhibitor, single point].

For `COc1ccccc1-c1nnc(SCC(=O)N2CC(C)CC(C)C2)o1` (stereo not drawn), which Potency is on record?
The Potency was inconclusive: 35.5 µM [inhibitor, single point].

For `Cc1ccc2c(CN3C(=O)NC(C)(c4ccc5c(c4)OCO5)C3=O)cc(=O)oc2c1` (stereo not drawn), which Potency is on record?
Its Potency is inconclusive: 35.5 µM [inhibitor, single point].

With `O=C(Nc1ccc(Oc2cccc(C(F)(F)F)c2)nc1)c1cccs1` as the compound, how does the Potency read?
The Potency was inconclusive: 35.5 µM [inhibitor, single point].

`CN(c1ccccc1C(=O)Nc1ccc2c(c1)OCO2)S(C)(=O)=O` was tested. Which “activity change, negative = inhibition” value did it give?
Its value is inactive: -5.5%.

Which “activity change, negative = inhibition” value does the source give for `CC(C)CCNC(=O)Cc1ccc(Nc2nc(=S)[nH]c3ccccc23)cc1` here?
The value was inactive: 4.19%.

For `COc1cccc(CNc2nc3nc(C)c(Cl)c(C)n3n2)c1`, which Potency is on record?
Its Potency is inconclusive: 28.2 µM [inhibitor, partial curve].

For `COc1ccc(-c2ccc(CCC(=O)O)n2Cc2ccco2)cc1`, which Potency is on record?
Its Potency is inconclusive: 28.2 µM [inhibitor, partial curve].

`COc1ccc(/C(O)=C2\C(=O)C(=O)N(Cc3ccco3)C2c2cc(OC)ccc2OC)cc1` (stereo not drawn) was tested. Which Potency did it give?
Its Potency is inconclusive: 20 µM [inhibitor, partial curve].

Which Potency does the source give for `Cc1ccc2nc(C)c3c(c2c1)COC3` here?
The Potency was inconclusive: 39.8 µM [inhibitor, single point].

`CC1(C)Cc2nc3sc4c(=O)[nH]cnc4c3cc2CS1` was tested. Which Potency did it give?
Its Potency is inconclusive: 28.2 µM [inhibitor, single point].

With `Cc1c(Cl)cccc1NC(=O)Nc1ccccc1C(N)=O` as the compound, how does the Potency read?
Its Potency is inconclusive: 28.2 µM [inhibitor, single point].

For `CC(=O)Nc1ccc2nc3ccccc3nc2c1`, which Potency is on record?
The Potency was active: 14.1 µM.

With `COc1ccc(-c2cc(C(=O)OCC(=O)Nc3cc(C)on3)c3ccccc3n2)cc1OC` as the compound, how does the Potency read?
The Potency was inconclusive: 35.5 µM [inhibitor, single point].
